# Reference: PubChem BioAssay AID1508642 (National Center for Advancing Translational Sciences (NCATS), 2021)
# Among all 43,000 compounds or so, about 200 (0.47%) were called active. Another 12% or so got no clear call; they are omitted. The call rests on the fitted dose curve; in most records, active means well fitted cell-killing curve with a large enough effect; inconclusive means small, poorly fitted or top-dose-only effect, or effect the other way; inactive means flat fitted curve, though single readings scatter. Some of the results follow.
# Assay: Cell viability qHTS assay in S16 Pmp22-F2sN cells; further: nearly all actives have a fitted effect of over 65% in size
# Details: S16 Pmp22-F2sN Schwann cells (luciferase reporters placed in the Pmp22 gene) viability, CellTiter-Glo, 24 h; series mostly up to 57.5 µM; activity change, negative = cytotoxicity: at the top concentration
# In short: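 S16 Schwann cells carrying the Pmp22-F2sN reporter, seeded in 1536-well format, were exposed to library compounds for 24 h at 37C. Viability was read as CellTiter-Glo luminescence after 15 min at room temperature.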
# On the % scale 0 is the no-effect control and ±100 the full control effect.
row,Structure (SMILES),"activity change, negative = cytotoxicity"
1,Cc1ccc(CSCCC(=O)N2CCN(c3cc(C)ccc3C)CC2)cc1,inactive: -8.02%
2,CCCN(CCC)C(=O)C1CCCN(c2ncnc3onc(-c4ccc(F)cc4)c23)C1 (centres undefined),inactive: 6.77%
3,COc1ccc(-c2noc(CN(C(=O)Cc3ccc(C)cc3)C(C)C)n2)cc1,inactive: 2.7%
4,CCC(C)NC(=O)CSc1nnc(-c2ccc(C)cc2)c(-c2ccc(C)cc2)n1 (centres undefined),inactive: -25.6%
5,COc1cc(C)ccc1OCCSc1nc2ccc(NC(=O)c3cccs3)cc2s1,inactive: 7.21%
6,Cc1ccc(C(=O)Nc2ccccc2C(=O)OCc2cc(=O)n3nc(C4CC4)sc3n2)cc1,inactive: 2.73%
7,O=C(CN1C(=O)C2(SCC(=O)N2c2ccccc2)c2ccccc21)NCCc1ccccc1 (centres undefined),inactive: 18%
8,CCc1ccc(NC(=O)CSc2nc3c(sc4ccccc43)c(=O)n2CCN(CC)CC)cc1,inactive: 1.09%
9,Cc1ccc(CNS(=O)(=O)c2cc3c(cc2C)N(C)CCO3)cc1,inactive: 5.55%
10,Cc1cn2c(=O)cc(COC(=O)c3ccccc3F)nc2s1,inactive: -10.5%
11,COc1ccc2nc3sc(C(=O)N4CCN(c5ccc(F)cc5)CC4)cc3cc2c1,inactive: 11.2%
12,Cc1ccc(C)c(N2CCN(S(=O)(=O)c3ccc4c(c3)CCCN4C(=O)C3CCC3)CC2)c1,inactive: -15.5%
13,Cc1ccc(CNC(=O)CN2C(=O)CSc3ccc(S(=O)(=O)N4CCCC4)cc32)cc1,inactive: 4.18%
14,CCc1ccc(C(=O)CSc2nc(-c3ccccc3)nc3c2CCCC3)cc1,inactive: 5.16%
15,CN(C)c1ccc(CNC(=O)CN2C(=O)CCn3nc(-c4cn(C)c5ccccc45)cc32)cc1,inactive: -3.61%
16,COc1cccc(-c2nc3c(c(SCc4ccccc4Cl)n2)Cc2c(CO)cnc(C)c2O3)c1,inactive: -0.254%
17,COc1ccc(CNS(=O)(=O)c2ccc(F)c(C(=O)Nc3c(C)cc(C)cc3C)c2)cc1,inactive: 16%
18,Cc1cc2oc(C(=O)Nc3sc4c(c3C(=O)NCc3ccccc3)CCCC4)cc(=O)c2cc1C,inactive: 0.189%
19,CCCn1c2ccccc2c2cnn(CC(=O)NC(C)CC)c(=O)c21 (centres undefined),inactive: 3.37%
20,CCCCOC(=O)/C(C#N)=C/c1ccc(-c2ccc(Br)cc2)o1,inactive: -7.71%
21,CCC(=O)N1CCN(c2nc3c(C)cccc3s2)CC1,inactive: -3.59%
22,Cc1ccc(NC(=O)CCCN2C(=O)COc3ccc(C)cc32)c(C)c1,inactive: -10.7%
23,Cc1ccc(N2C(=O)CSC23C(=O)N(CC(=O)Nc2ccc(C)cc2C)c2ccccc23)cc1 (centres undefined),inactive: -21.2%
24,COc1ccc2c(Sc3ccccc3)c(C(=O)N3CCC(C)CC3)[nH]c2c1,inactive: -1.22%
25,CCc1cccc(C)c1NC(=O)c1nc2ccccc2nc1N1CCCCC1,inactive: 0.311%

row,Structure (SMILES),"activity change, negative = cytotoxicity"
1,Cc1ccc([N+](=O)[O-])c(Oc2ncnc3c2oc2ccccc23)c1,inactive: -3.26%
2,CCOC(=O)c1c(-c2ccc(C)cc2C)csc1NC(=O)c1ccccc1Cl,inactive: 22.6%
3,NC(=O)C1CCN(C(=O)c2ccc3c(c2)N(Cc2cccc(Cl)c2)C(=O)c2ccccc2S3(=O)=O)CC1,inactive: -2.5%
4,Cc1ccc2c(=O)cc(C(=O)Nc3c(C(=O)c4ccccc4)oc4ccccc34)oc2c1,inactive: 1.31%
5,CCOc1ccc(NS(=O)(=O)c2ccc3[nH]cc(C(=O)N(C)C4CCCCC4)c(=O)c3c2)cc1,inactive: -2.44%
6,CC(CNC(=O)c1ccc(Nc2nc3ccccc3n3nnnc23)cc1)c1ccccc1 (centres undefined),inactive: 1.55%
7,COCCNC(=O)Cn1cc2c(n1)-c1c(oc(C(=O)N3CCCC3)c1C)CC2,inactive: 1.34%
8,NC(=O)Cn1c(=O)n(CCCCCC(=O)NCc2ccccc2Cl)c(=O)c2sccc21,inactive: 8.11%
9,COC(=O)c1c(-c2cccs2)csc1NC(=O)COc1ccccc1,inactive: -2.09%
10,COc1cccc(N2CC(NC(=O)C3CCCC3)CC2=O)c1 (centres undefined),inactive: 1.18%
11,COc1ccc(Cl)cc1NC(=O)Cn1nnc(C(=O)NCc2cccs2)c1N,inactive: -15.1%
12,COc1ccccc1NC(=O)COC(=O)CC(C)(C)CC1=NS(=O)(=O)c2ccccc2N1,inactive: 14.3%
13,COc1ccc2c(CNCc3ccco3)c(C(=O)O)n(Cc3ccccc3)c2c1,inactive: 7.05%
14,COc1ccc(-c2nnc(SCC(=O)c3ccc(NC(C)=O)cc3)o2)cc1OC,inactive: -3.68%
15,CSc1ccc(C2c3[nH]c4ccccc4c3CCN2C(=O)CCC2CCCC2)cc1 (centres undefined),inactive: -23.8%
16,COC(=O)c1c(-c2cccs2)csc1NC(=O)c1ccc(C(C)(C)C)cc1,inactive: 2.21%
17,O=C(Nc1ccc2nc(SCC(=O)N3CCCC3)sc2c1)c1cccc(F)c1,inactive: -5.21%
18,CCc1ccc(-n2c(=O)c3ccc(C(=O)NCCc4ccccc4)cc3n(Cc3ccccc3C#N)c2=O)cc1,inactive: 13.1%
19,Cc1cccc(Cc2c(C)nc3nc(SCc4cccc(F)c4)nn3c2C)c1,inactive: -2.24%
20,O=S(=O)(c1ccccc1)c1nnn2c1nc(NC1CCCCCC1)c1sccc12,inactive: 18.7%
21,Cc1ccc(-c2nc(S(=O)(=O)c3ccc(C)cc3)c(N3CCCCC3)o2)cc1,inactive: 1.52%
22,CCOc1ccc(CCNC(=O)CN2C(=O)COc3ccc(S(=O)(=O)N(CC)CC)cc32)cc1,inactive: -0.047%
23,COc1cc(S(=O)(=O)n2ccnc2C(C)C)ccc1Br,inactive: 2.34%
24,Cc1ccc(Cn2ccnc2SCC(=O)NC2CCCC2)cc1,inactive: 7.78%
